The supplement of paper PMC8728848
The other results are listed elsewhere or left out.

Assays:
Assay in all cases: glycan array binding signal (z-score within array); higher = stronger binding
Conditions in all cases: glycan notation: IUPAC condensed, linker removed
[1] = molecular target: GlcNAc(b1-3)Gal(b1-4)GlcNAc(b1-3)Gal(b1-4)GlcNAc(b1-3)GalNAc
Summary of the method: (§1)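 From the Consortium for Functional Glycomics database, 3228 arrays were curated, keeping only those whose protein sequence was available. Binding is given as a within-array Z-score averaged across arrays sharing a protein sequence and across linkers. Negative Z-scores can be read as non-binding.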

[2] = molecular target: GlcNAc(b1-3)Gal(b1-4)GlcNAc(b1-3)GalNAc
Summary of the method: as §1

[3] = molecular target: GlcNAc(b1-3)Gal(b1-4)GlcNAc(b1-3)[GlcNAc(b1-3)Gal(b1-4)GlcNAc(b1-3)]GalNAc
Summary of the method: as §1

[4] = molecular target: GlcNAc(b1-3)Gal(b1-4)GlcNAc(b1-6)[Gal(b1-3)]GalNAc
Summary of the method: as §1

[5] = molecular target: GlcNAc(b1-3)Gal(b1-4)GlcNAc(b1-6)[GlcNAc(b1-3)Gal(b1-3)]GalNAc
Summary of the method: as §1

[6] = molecular target: GlcNAc(b1-3)Gal(b1-4)GlcNAc(b1-6)[GlcNAc(b1-3)]Gal(b1-4)GlcNAc
Summary of the method: as §1

GlcNAc(b1-3)GalNAc = molecular target: GlcNAc(b1-3)GalNAc
Summary of the method: as §1

GlcNAc(b1-3)Man = molecular target: GlcNAc(b1-3)Man
Summary of the method: as §1

[7] = molecular target: GlcNAc(b1-3)[GlcNAc(b1-4)][GlcNAc(b1-6)]GlcNAc
Summary of the method: as §1

[8] = molecular target: GlcNAc(b1-3)[GlcNAc(b1-6)]Gal(b1-4)GlcNAc
Summary of the method: as §1

[9] = molecular target: GlcNAc(b1-3)[GlcNAc(b1-6)]GalNAc
Summary of the method: as §1

[10] = molecular target: GlcNAc(b1-4)Gal(b1-4)GlcNAc
Summary of the method: as §1

GlcNAc(b1-4)GlcNAc = molecular target: GlcNAc(b1-4)GlcNAc
Summary of the method: as §1

[11] = molecular target: GlcNAc(b1-4)GlcNAc(b1-4)GlcNAc
Summary of the method: as §1

[12] = molecular target: GlcNAc(b1-4)GlcNAc(b1-4)GlcNAc(b1-4)GlcNAc(b1-4)GlcNAc
Summary of the method: as §1

[13] = molecular target: GlcNAc(b1-4)GlcNAc(b1-4)GlcNAc(b1-4)GlcNAc(b1-4)GlcNAc(b1-4)GlcNAc
Summary of the method: as §1

[14] = molecular target: GlcNAc(b1-4)[GlcNAc(b1-6)]GalNAc
Summary of the method: as §1

[15] = molecular target: GlcNAc(b1-6)Gal(b1-4)GlcNAc
Summary of the method: as §1

GlcNAc(b1-6)GalNAc = molecular target: GlcNAc(b1-6)GalNAc
Summary of the method: as §1

[16] = molecular target: GlcNAc6S(b1-3)Gal(b1-4)GlcNAc
Summary of the method: as §1

Kdn(a2-3)Gal(b1-3)GalNAc = molecular target: Kdn(a2-3)Gal(b1-3)GalNAc
Summary of the method: as §1

Kdn(a2-3)Gal(b1-3)GlcNAc = molecular target: Kdn(a2-3)Gal(b1-3)GlcNAc
Summary of the method: as §1

Kdn(a2-3)Gal(b1-4)Glc = molecular target: Kdn(a2-3)Gal(b1-4)Glc
Summary of the method: as §1

Kdn(a2-3)Gal(b1-4)GlcNAc = molecular target: Kdn(a2-3)Gal(b1-4)GlcNAc
Summary of the method: as §1

[17] = molecular target: Kdn(a2-3)Gal(b1-4)[Fuc(a1-3)]GlcNAc
Summary of the method: as §1

Kdn(a2-6)Gal(b1-4)GlcNAc = molecular target: Kdn(a2-6)Gal(b1-4)GlcNAc
Summary of the method: as §1

[18] = molecular target: Man(a1-2)Man(a1-2)Man(a1-3)Man
Summary of the method: as §1

[19] = molecular target: Man(a1-2)Man(a1-2)Man(a1-6)[Man(a1-3)]Man
Summary of the method: as §1

Man(a1-2)Man(a1-3)Man = molecular target: Man(a1-2)Man(a1-3)Man
Summary of the method: as §1

[20] = molecular target: Man(a1-2)Man(a1-3)[Man(a1-2)Man(a1-6)]Man
Summary of the method: as §1

[21] = molecular target: Man(a1-2)Man(a1-3)[Man(a1-2)Man(a1-6)]Man(a1-6)[Man(a1-2)Man(a1-2)Man(a1-3)]Man
Summary of the method: as §1

[22] = molecular target: Man(a1-2)Man(a1-3)[Man(a1-2)Man(a1-6)]Man(a1-6)[Man(a1-2)Man(a1-2)Man(a1-3)]Man(b1-4)GlcNAc(b1-4)GlcNAc
Summary of the method: as §1

[23] = molecular target: Man(a1-2)Man(a1-3)[Man(a1-6)]Man(a1-6)[Man(a1-2)Man(a1-3)]Man(b1-4)GlcNAc(b1-4)GlcNAc
Summary of the method: as §1

[24] = molecular target: Man(a1-2)Man(a1-6)[Man(a1-3)]Man(a1-6)[Man(a1-2)Man(a1-2)Man(a1-3)]Man
Summary of the method: as §1

[25] = molecular target: Man(a1-2)Man(a1-6)[Man(a1-3)]Man(a1-6)[Man(a1-2)Man(a1-2)Man(a1-3)]Man(b1-4)GlcNAc(b1-4)GlcNAc
Summary of the method: as §1

Man(a1-3)[Man(a1-6)]Man = molecular target: Man(a1-3)[Man(a1-6)]Man
Summary of the method: as §1

[26] = molecular target: Man(a1-3)[Man(a1-6)]Man(a1-6)[Man(a1-2)Man(a1-3)]Man(b1-4)GlcNAc(b1-4)GlcNAc
Summary of the method: as §1

[27] = molecular target: Man(a1-3)[Man(a1-6)]Man(a1-6)[Man(a1-3)]Man
Summary of the method: as §1

[28] = molecular target: Man(a1-3)[Man(a1-6)]Man(a1-6)[Man(a1-3)]Man(b1-4)GlcNAc(b1-4)GlcNAc
Summary of the method: as §1

[29] = molecular target: Man(a1-3)[Man(a1-6)]Man(b1-4)GlcNAc(b1-4)GlcNAc
Summary of the method: as §1

[30] = molecular target: Man(a1-3)[Man(a1-6)]Man(b1-4)GlcNAc(b1-4)[Fuc(a1-6)]GlcNAc
Summary of the method: as §1

Man(a1-6)Man = molecular target: Man(a1-6)Man
Summary of the method: as §1

Man(b1-4)GlcNAc = molecular target: Man(b1-4)GlcNAc
Summary of the method: as §1

MurNAc(b1-4)GlcNAc = molecular target: MurNAc(b1-4)GlcNAc
Summary of the method: as §1

Neu5Ac(a2-3)Gal = molecular target: Neu5Ac(a2-3)Gal
Summary of the method: as §1

B1: Cohesin-mDC-ASGPR (Macaca mulatta) (protein)
chain: LDITSHHHHHHDDLDAVRIKVDTVNAKPGDTVRIPVRFSGIPSKGIANCDFVYSYDPNVLEIIEIEPGDIIVDPNPDKSFDTAVYPDRKIIVFLFAEDSGTGAYAITKDGVFATIVAKVKEGAPNGLSVIKFVEVGGFANNDLVEQKTQFFDGGVNVGDTTEPATPTTPVTTPTTTDDLDAASSQNSKFQRDLVTLRTDFSNFTSNTVAEIQALTSQGSSVEEMIASLKAEVEVIKQEQQAVHSEMLLRVQRLMQDLNKLTCQVATLKNNASTERTCCPVNWVEHQDSCYWFSRSGMPWAEAEKHCQLENAHLVVINSREEQNFVQEHLSFAYTWMGLSDREGAWKWVDGTDYETGFQNWKPGQPDDWQGHGLGGGEDCAHFHPDGRWNDDVCQRPYYWVCEAGLTQASQESH
- glycan array binding signal (z-score) [1]: -0.422
- glycan array binding signal (z-score) [2]: -0.413
- glycan array binding signal (z-score) [3]: -0.42
- glycan array binding signal (z-score) [4]: -0.381
- glycan array binding signal (z-score) [5]: -0.418
- glycan array binding signal (z-score) [6]: -0.427
- glycan array binding signal (z-score) (GlcNAc(b1-3)GalNAc): -0.389
- glycan array binding signal (z-score) (GlcNAc(b1-3)Man): -0.4
- glycan array binding signal (z-score) [7]: -0.386
- glycan array binding signal (z-score) [8]: -0.432
- glycan array binding signal (z-score) [9]: -0.395
- glycan array binding signal (z-score) [10]: -0.408
- glycan array binding signal (z-score) (GlcNAc(b1-4)GlcNAc): -0.409
- glycan array binding signal (z-score) [11]: -0.398
- glycan array binding signal (z-score) [12]: -0.402
- glycan array binding signal (z-score) [13]: -0.35
- glycan array binding signal (z-score) [14]: -0.393
- glycan array binding signal (z-score) [15]: -0.406
- glycan array binding signal (z-score) (GlcNAc(b1-6)GalNAc): 3.07
- glycan array binding signal (z-score) [16]: -0.417
- glycan array binding signal (z-score) (Kdn(a2-3)Gal(b1-3)GalNAc): -0.062
- glycan array binding signal (z-score) (Kdn(a2-3)Gal(b1-3)GlcNAc): -0.429
- glycan array binding signal (z-score) (Kdn(a2-3)Gal(b1-4)Glc): -0.397
- glycan array binding signal (z-score) (Kdn(a2-3)Gal(b1-4)GlcNAc): -0.426
- glycan array binding signal (z-score) [17]: -0.378
- glycan array binding signal (z-score) (Kdn(a2-6)Gal(b1-4)GlcNAc): -0.387
- glycan array binding signal (z-score) [18]: 0.068
- glycan array binding signal (z-score) [19]: -0.399
- glycan array binding signal (z-score) (Man(a1-2)Man(a1-3)Man): -0.366
- glycan array binding signal (z-score) [20]: -0.414
- glycan array binding signal (z-score) [21]: -0.409
- glycan array binding signal (z-score) [22]: -0.332
- glycan array binding signal (z-score) [23]: -0.403
- glycan array binding signal (z-score) [24]: -0.372
- glycan array binding signal (z-score) [25]: -0.407
- glycan array binding signal (z-score) (Man(a1-3)[Man(a1-6)]Man): -0.397
- glycan array binding signal (z-score) [26]: -0.326
- glycan array binding signal (z-score) [27]: -0.405
- glycan array binding signal (z-score) [28]: -0.403
- glycan array binding signal (z-score) [29]: -0.408
- glycan array binding signal (z-score) [30]: -0.432
- glycan array binding signal (z-score) (Man(a1-6)Man): -0.297
- glycan array binding signal (z-score) (Man(b1-4)GlcNAc): -0.376
- glycan array binding signal (z-score) (MurNAc(b1-4)GlcNAc): -0.419
- glycan array binding signal (z-score) (Neu5Ac(a2-3)Gal): -0.373
